Here are results for six cell lines from the supplement of paper PMC4967469.

Lines with a small IC50 respond at low doses; a fit beyond the top or the lowest dose is shown as a bound at that dose. For AUC the same curve is integrated over the 256-fold range of doses and scaled to a fraction; the more sensitive the line, the further below 1. For part of these data: The top dose, if marked as inferred, was derived from the fitted curves, not read from the paper. For part of these data: Where an entry number is given, a second screen of the drug exists; the two often differ. A value given as a limit tells only on which side of the number the result lay.

Holding throughout (experiment): Viability of human cancer cell lines after 72 h of drug (GDSC screen)
Compound in one experiment: NC(=O)c1cccc(-c2cc(Nc3ccc(OC(F)(F)F)cc3)ncn2)c1 [GNF-2]
Particulars: top dose 1.28 µM; top dose inferred. How it is done: (§1)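 Human cancer cell lines in 384-well plates, medium with 10% serum, drug for 72 h over a 256-fold dose range (nine 2-fold or five 4-fold steps up to the top dose). Adherent lines were fixed and stained with the nucleic acid dye Syto60, suspension lines read with resazurin; signal relative to control wells, capped at 0 and 100%. One two-parameter sigmoid per drug and line, fitted in a mixed model over all curves with the slope shared within a line.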

Compound in a further experiment: O=S(=O)(c1ccccc1)N(CC(F)(F)F)c1ccc(C(O)(C(F)(F)F)C(F)(F)F)cc1 [T0901317]
Particulars: top dose 10.24 µM; top dose inferred. How it is done:
as §1

Compound in the next experiment: Cc1ccc(Nc2cc(-c3cccc(N4C(=O)c5ccccc5C4=O)c3)ncn2)cc1NS(C)(=O)=O [KIN001-270]
Particulars: top dose 20 µM; top dose inferred. The method, then: as §1

Compound in a further experiment: CC(O)(CS(=O)(=O)c1ccc(F)cc1)C(=O)Nc1ccc(C#N)c(C(F)(F)F)c1 [Bicalutamide]
Particulars: top dose inferred. How it is done:
as §1

Compound in a further experiment: Nc1ccn([C@@H]2O[C@H](CO)[C@@H](O)C2(F)F)c(=O)n1 [Gemcitabine]
Particulars: top dose 1.024 µM. How it is done:
as §1

Compound in another experiment: Cc1cn(-c2cc(NC(=O)c3ccc(C)c(Nc4nccc(-c5cccnc5)n4)c3)cc(C(F)(F)F)c2)cn1 [Nilotinib]
The note with it: top dose 2 µM. The method, then: as §1

Compound in another experiment: S=C(NCc1ccc2c(c1)OCO2)N1CCN(c2ncnc3c2oc2ccccc23)CC1 [MP470]
The note with it: top dose 20 µM; top dose inferred. The method, then: as §1

Compound in another experiment: CCNC(=O)c1noc(-c2cc(C(C)C)c(O)cc2O)c1-c1ccc(CN2CCOCC2)cc1 [AUY922]
Particulars: top dose 0.256 µM; top dose inferred. How it is done:
as §1

Compound in the next experiment: C/C(O)=C(\C#N)C(=O)Nc1cc(Br)ccc1Br [LFM-A13]
The note with it: top dose 16 µM; top dose inferred. The method, then:
as §1

Compound in another experiment: CC(C)c1ccccc1Cc1cc(C(=O)Nc2ccc(S(=O)(=O)c3ccccc3C(C)(C)C)cc2)c(O)c(O)c1O [TW-37]
Particulars: top dose 5 µM. The method, then:
as §1

Setting [1] is: top dose 1.024 µM, screen: GDSC drug entry 150.
Setting [2] is: top dose 10 µM, screen: GDSC drug entry 1502.

Usually IC50 stands for the point on the concentration scale where inhibition reaches its midpoint. Take ES7 (Ewing sarcoma, adherent): the AUC with GNF-2 was determined as 0.944; with T0901317 it was 0.959; with KIN001-270, 0.898; in the experiment with Bicalutamide (setting [1]), 0.975; in the experiment with Bicalutamide (setting [2]), 0.971; with Gemcitabine, 0.27. Also, the AUC stood at 0.947 with Nilotinib; 0.822 with MP470; 0.565 in the experiment with AUY922; 0.91 with LFM-A13; 0.505 with TW-37. Besides, the concentration for half-maximal inhibition (IC50) is > 1.28 µM in the experiment with GNF-2; > 10.2 µM in the experiment with T0901317; > 20 µM in the experiment with KIN001-270; > 1.02 µM with Bicalutamide (setting [1]); > 10 µM with Bicalutamide (setting [2]); 0.0139 µM in the experiment with Gemcitabine. The IC50 was > 2 µM in the experiment with Nilotinib; 12.1 µM in the experiment with MP470; 0.0243 µM with AUY922; > 16 µM with LFM-A13; 0.322 µM with TW-37.
With “NCI-H2141 (small cell lung carcinoma, suspension)”, the AUC with GNF-2 is 0.99; in the experiment with T0901317, 0.99; with KIN001-270 it was 0.99; with Bicalutamide (setting [1]) it was 0.99; with Bicalutamide (setting [2]), 0.99; in the experiment with Gemcitabine, 0.742. Moreover, the AUC in the experiment with Nilotinib is 0.987; in the experiment with MP470, 0.897; with AUY922, 0.843; in the experiment with LFM-A13, 0.974; with TW-37 it was 0.602. Further, the IC50 in the experiment with GNF-2 was > 1.28 µM; with T0901317 it was > 10.2 µM; in the experiment with KIN001-270, > 20 µM; with Bicalutamide (setting [1]), > 1.02 µM; in the experiment with Bicalutamide (setting [2]) it was > 10 µM; in the experiment with Gemcitabine, 0.307 µM. In addition, the concentration for half-maximal inhibition (IC50) in the experiment with Nilotinib is > 2 µM; with MP470, > 20 µM; with AUY922 it was 0.173 µM; with LFM-A13, > 16 µM; in the experiment with TW-37, 0.589 µM.
For the cell line “NCI-H446 (small cell lung carcinoma, semi-adherent)”, the AUC came to 0.98 with GNF-2; 0.985 in the experiment with T0901317; 0.889 with KIN001-270; 0.985 with Bicalutamide (setting [1]); 0.964 with Bicalutamide (setting [2]); 0.914 with Gemcitabine. Further, the AUC with Nilotinib is 0.985; with MP470 it was 0.971; with AUY922, 0.835; with LFM-A13, 0.972; with TW-37 it was 0.737. In addition, the IC50 in the experiment with GNF-2 is > 1.28 µM; with T0901317, > 10.2 µM; in the experiment with KIN001-270, > 20 µM; with Bicalutamide (setting [1]), > 1.02 µM; with Bicalutamide (setting [2]) it was > 10 µM; in the experiment with Gemcitabine, > 1.02 µM. Further, the IC50 was > 2 µM with Nilotinib; > 20 µM with MP470; 0.187 µM with AUY922; > 16 µM with LFM-A13; 1.57 µM with TW-37.
Consider CTB-1 (B-cell lymphoma, suspension), for which the AUC turned out to be 0.978 with GNF-2; 0.779 with T0901317; 0.979 in the experiment with KIN001-270; 0.967 with Bicalutamide (setting [1]); 0.947 in the experiment with Bicalutamide (setting [2]); 0.445 with Gemcitabine. Moreover, the AUC with Nilotinib turned out to be 0.945; with MP470, 0.445; in the experiment with AUY922, 0.627; with LFM-A13 it was 0.97; with TW-37, 0.474. Also, the concentration for half-maximal inhibition (IC50) with GNF-2 is > 1.28 µM; in the experiment with T0901317 it was 5.86 µM; in the experiment with KIN001-270 it was > 20 µM; in the experiment with Bicalutamide (setting [1]), > 1.02 µM; in the experiment with Bicalutamide (setting [2]) it was > 10 µM; with Gemcitabine it was 0.0428 µM. For the same cell line, the half-inhibitory concentration (IC50) is > 2 µM with Nilotinib; 0.835 µM with MP470; 0.0409 µM with AUY922; > 16 µM with LFM-A13; 0.259 µM in the experiment with TW-37.
Take NB14 (neuroblastoma, adherent): the AUC in the experiment with GNF-2 worked out at 0.989; in the experiment with T0901317, 0.982; with KIN001-270, 0.95; with Bicalutamide (setting [1]), 0.987; in the experiment with Bicalutamide (setting [2]) it was 0.937; in the experiment with Gemcitabine, 0.501. Moreover, the AUC in the experiment with Nilotinib amounted to 0.983; with MP470 it was 0.955; with AUY922, 0.703; in the experiment with LFM-A13, 0.964; with TW-37, 0.261. The IC50 with GNF-2 is > 1.28 µM; with T0901317 it was > 10.2 µM; with KIN001-270, > 20 µM; with Bicalutamide (setting [1]) it was > 1.02 µM; in the experiment with Bicalutamide (setting [2]) it was > 10 µM; in the experiment with Gemcitabine, 0.0644 µM. Besides, the IC50 in the experiment with Nilotinib is > 2 µM; with MP470 it was > 20 µM; in the experiment with AUY922 it was 0.0574 µM; in the experiment with LFM-A13 it was > 16 µM; with TW-37, 0.0682 µM.
OPM-2 (myeloma, suspension): the AUC in the experiment with GNF-2 was 0.994; with T0901317 it was 0.988; with KIN001-270 it was 0.96; with Bicalutamide (setting [1]), 0.994; with Bicalutamide (setting [2]), 0.993; with Gemcitabine, 0.927. In addition, the AUC with Nilotinib was found to be 0.994; in the experiment with MP470 it was 0.97; with AUY922 it was 0.669; with LFM-A13, 0.982; in the experiment with TW-37, 0.924. Further, the IC50 with GNF-2 is > 1.28 µM; with T0901317, > 10.2 µM; with KIN001-270 it was > 20 µM; with Bicalutamide (setting [1]) it was > 1.02 µM; in the experiment with Bicalutamide (setting [2]), > 10 µM; with Gemcitabine it was > 1.02 µM. Also, the 50% inhibitory concentration (IC50) in the experiment with Nilotinib was > 2 µM; in the experiment with MP470, > 20 µM; in the experiment with AUY922, 0.0427 µM; with LFM-A13, > 16 µM; with TW-37 it was > 5 µM.
